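Five concentrations, 48 hours, 96-well plates. GI50 marks 50% less growth. TGI denotes the concentration required for complete inhibition of growth.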
Each compound was assayed on NCI-H322M lung (assay: NCI tumour cell line growth inhibition, 48 h).
Compound `O=C(c1ccc(O)cc1)C1[C@H](c2ccc(Cl)cc2)[C@@H](c2ccccc2)NC12C(=O)Nc1ccc(Br)cc12` (stereo not given in full) has a GI50 of 13.5 µM and a TGI of 26.3 µM.
Work on `O=C1c2c(c3c4cc(F)ccc4oc3c3[nH]c4ccc(Br)cc4c23)C(=O)N1O` yielded a GI50 of 50.7 µM and a TGI greater than 100 µM.
Work on `O=c1oc2ccc(-c3ccc(F)cc3F)cc2c(=O)n1-c1ccc(Cl)c(C(F)(F)F)c1` yielded a GI50 of 3.14 µM and a TGI of 10.3 µM.
`COc1cc2c(cc1OC)CN(CCCCOc1cc(O)c3c(=O)cc(-c4ccccc4)oc3c1)CC2` showed a GI50 of 42.8 µM and a TGI greater than 100 µM.
For `CC1(C)CC[C@]2(C(=O)Nc3ccc(Br)cc3)CC[C@]3(C)C(=CCC4[C@@]5(C)C[C@@H](O)[C@H](O)[C@@](C)(CO)C5CC[C@]43C)C2C1` (stereo not given in full), the GI50 was 21.6 µM and the TGI was 63 µM.
